Measurements from the supplement of paper PMC4723716.
± gives the uncertainty stated by the source. Over roughly 9,900 compounds, “viability index relative to DMSO control” has its median near 1; the lowest 2% begin near 0.85. The list shows a part of the results.

These compounds were tested on Plasmodium falciparum NF54 stage V gametocytes (assay: viability index relative to DMSO control (fraction); higher = less gametocyte killing). Settings: 2.5 µM, library set: Broad Institute DOS, incubation time: 72 h.
Procedure, shortened: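 Gametocytes (P. falciparum NF54, stage V) were treated with compound at 2.5 µM for 72 hr at 37°C in low oxygen, in serum-free medium at 0.75% gametocytemia and 1.25% hematocrit. Counts of 20–70 µm2 red particles, taken from one field per well after MitoTracker Red CMXRos with saponin, were divided by the plate mean of solvent-only wells. This ratio is the viability index.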

Row | SMILES | viability index
1 | COc1ccc2c3c([nH]c2c1)[C@@H](CO)N(Cc1nccs1)C[C@]31CN(Cc2ccncc2)C1 | 1.02 ± 0.079
2 | CCC(=O)N1CC(=O)N2[C@@H](CO)[C@H](c3ccc(C#CCC(C)C)cc3)[C@@H]2C1 | 0.947 ± 0.059
3 | Cc1ccc(-c2ccc([C@@H]3[C@@H](CO)N4C(=O)CN(C(=O)NC(C)C)C[C@H]34)cc2)cc1 | 1.03 ± 0.15
4 | COCC(=O)N1CC[C@@]2(CC1)CN(Cc1cc(F)ccc1F)[C@H](CO)c1c2c2ccc(OC)cc2n1C | 0.943 ± 0.028
5 | O=C(C1CCC1)N1C[C@H]2[C@@H](c3ccccc31)[C@@H](CO)N2Cc1ccccc1 | 1.09 ± 0.15
6 | CC[C@H]1C/C=C\C[C@H](CC)NC(=O)[C@H](C)CC(=O)N1 | 1.09 ± 0.071
7 | CO[C@@H]1CN(C)C(=O)c2ccc(NC(=O)c3nc4ccccc4s3)cc2OC[C@@H](C)N(Cc2cccnc2)C[C@@H]1C | 1.04 ± 0.02
8 | C/C=C/c1cccc(-c2nc(C(=O)NCc3cccc(OC)c3)cc3c2[C@H](CCO)N([S@@](=O)C(C)(C)C)C3)c1 | 1.05 ± 0.015
9 | C[C@@H]1CN([C@@H](C)CO)C(=O)CCCn2cc(nn2)CO[C@H]1CN(C)C(=O)Nc1ccc2c(c1)OCO2 | 1.028 ± 0.0018
10 | O=C(Nc1cccc(Cl)c1)N[C@H]1CC[C@@H](CCn2cc(Cc3ccccc3)nn2)O[C@H]1CO | 1.11 ± 0.036
11 | CC(C)(C)[S@](=O)N1Cc2cc(C(=O)N[C@@H]3CCN(Cc4ccccc4)C3)nc(-c3cccc(-c4cccnc4)c3)c2[C@@H]1CCO | 1.063 ± 0.0066
12 | CC(C)N(C[C@H]1[C@H](c2ccccc2)[C@@H](CO)N1S(C)(=O)=O)C(=O)CN(C)C | 0.955 ± 0.039
13 | C[C@H]1CN([C@@H](C)CO)C(=O)CCCn2nncc2CO[C@@H]1CN(C)Cc1cccc2c1OCCCO2 | 1.083 ± 0.01
14 | O=S(=O)(c1cccc(F)c1)N1CC[C@H]2[C@H](CO)Nc3ccc(C#Cc4ccccc4F)cc3[C@H]21 | 1.1 ± 0.012
15 | C[C@H]1CN([C@@H](C)CO)C(=O)Cc2cc(NC(=O)C3CC3)ccc2O[C@@H]1CN(C)S(=O)(=O)c1cn(C)cn1 | 0.936 ± 0.19
16 | CNC[C@H]1OCc2ccccc2-c2ccccc2C(=O)N([C@@H](C)CO)C[C@H]1C | 0.99 ± 0.12
17 | C[C@@H](NC(=O)C[C@@H]1CC[C@@H]2[C@H](COc3ccc(NS(=O)(=O)c4ccc(Cl)cc4)cc3C(=O)N2C)O1)c1ccccc1 | 1.02 ± 0.025
18 | C[C@@H]1CN([C@@H](C)CO)C(=O)CCCn2cc(nn2)CO[C@@H]1CN(C)C(=O)NC1CCCCC1 | 1.02 ± 0.025
19 | CCCNC(=O)C[C@H]1CC[C@H]2[C@@H](COC[C@@H](O)CN2C(=O)Nc2ccc(Cl)c(Cl)c2)O1 | 1.16 ± 0.016
20 | C[C@@H]1CN([C@@H](C)CO)C(=O)c2cccc(NC(=O)Nc3ccc4c(c3)OCO4)c2O[C@@H]1CN(C)S(C)(=O)=O | 1.02 ± 0.066
21 | CS(=O)(=O)N1CC(=O)N2[C@H](C1)[C@H](c1ccc(C#CCC3CCCC3)cc1)[C@@H]2CO | 1.01 ± 0.065
22 | COc1ccc(C[C@H]2CCn3nncc3COC[C@@H](CC(C)C)NC2=O)cc1 | 1.11 ± 0.12
23 | CO[C@H]1CN(C)C(=O)c2ccc(NS(=O)(=O)c3ccc(C)cc3)cc2OC[C@H](C)N(C)C[C@H]1C | 0.972 ± 0.056
24 | CCS(=O)(=O)Nc1ccc2c(c1)C(=O)N(C)[C@@H]1CC[C@H](CC(=O)NC3CCCCC3)O[C@@H]1CO2 | 0.905 ± 0.12

Row | SMILES | viability index
25 | C/C=C/c1ccccc1[C@@H]1[C@@H](C#N)N(c2nc(CC)cs2)[C@H]1CO | 1.073 ± 0.0095
26 | CNC[C@H]1Oc2c(NS(=O)(=O)c3ccc(Cl)cc3)cccc2C(=O)N([C@H](C)CO)C[C@@H]1C | 0.947 ± 0.029
27 | CO[C@@H]1CN(C)C(=O)c2cc(NC(C)=O)ccc2OC[C@H](C)N(Cc2ccncc2)C[C@@H]1C | 1.03 ± 0.036
28 | CC(C)NC(=O)N1CC[C@H]2[C@@H]1c1cc(C#Cc3ccccc3)ccc1N(C)[C@H]2CO | 1.08 ± 0.017
29 | Cc1noc(C)c1NC(=O)Nc1ccc2c(c1)C(=O)N([C@@H](C)CO)C[C@@H](C)[C@H](CN(C)S(=O)(=O)c1ccc(F)cc1)O2 | 0.944 ± 0.2
30 | C[C@@H]1CCCCO[C@@H](CN(C)C(=O)CCCN(C)C)[C@@H](C)CN([C@@H](C)CO)C(=O)c2cc(NS(=O)(=O)c3ccc(Cl)cc3)ccc2O1 | 1.15 ± 0.11
31 | CN1C(=O)c2cc(NC(=O)NCc3ccccc3)ccc2OC[C@@H]2O[C@@H](CC(=O)NCC3CCCCC3)CC[C@H]21 | 0.988 ± 0.14
32 | CC(C)NC(=O)N1CC2(C1)[C@H](c1ccccc1)[C@H](CO)N2Cc1cncnc1 | 1.03 ± 0.13
33 | CO[C@@H]1CN(C)C(=O)c2ccc(NC(=O)c3ccno3)cc2OC[C@@H](C)N(S(C)(=O)=O)C[C@@H]1C | 1.11 ± 0.088
34 | N#C[C@H]1[C@H](c2ccc(C3=CCCCC3)cc2)[C@@H](CO)N1S(=O)(=O)c1ccccc1 | 1.14 ± 0.022
35 | C[C@H](CO)N1C[C@H](C)[C@@H](CN(C)S(=O)(=O)c2ccccc2C#N)OCc2cnnn2CCCC1=O | 1.034 ± 0.0085
36 | CC(=O)N1CC[C@@H]2[C@H]1c1cc(-c3ccccc3)ccc1N[C@@H]2CO | 1.11 ± 0.075
37 | C[C@@H]1CCCCO[C@@H](CN(C)C(=O)CCCN(C)C)[C@H](C)CN([C@@H](C)CO)C(=O)c2cc(NS(=O)(=O)c3ccc(Cl)cc3)ccc2O1 | 1.1 ± 0.073
38 | C[C@H](CO)N1C[C@H](C)[C@@H](CN(C)C(=O)c2cc(Cl)cc(Cl)c2)OCc2ccccc2-c2ccccc2C1=O | 0.965 ± 0.052
39 | O=C(C[C@H]1CC[C@H](NS(=O)(=O)c2ccc(F)cc2)[C@H](CO)O1)N1CCN(c2ccccc2)CC1 | 1.15 ± 0.059
40 | COCC(=O)N1CC(=O)N2[C@H](C1)[C@H](c1ccc(C#CC3CC3)cc1)[C@@H]2CO | 1.032 ± 0.0074
41 | O=C1N[C@@H](c2ccccc2)COCc2cn(nn2)CC[C@H]1Cc1cccc(Cl)c1 | 1.07 ± 0.039
42 | O=C1[C@H](Cc2ccc(C(F)(F)F)cc2)CCn2nncc2COC[C@@H]2CCCCN12 | 1.06 ± 0.06
43 | COc1ccc(NC(=O)N(C)C[C@@H]2Oc3c(NS(=O)(=O)c4c(C)noc4C)cccc3C(=O)N([C@H](C)CO)C[C@@H]2C)cc1 | 0.9833 ± 0.0028
44 | COc1cccc(-c2ccc([C@H]3[C@H](C#N)N(C(=O)Cc4ccncc4)[C@H]3CO)cc2)c1 | 1.03 ± 0.083
45 | COc1cccc(S(=O)(=O)Nc2ccc3c(c2)C(=O)N(C)[C@H]2CC[C@H](CC(=O)NCC4CCCCC4)O[C@H]2CO3)c1 | 1.04 ± 0.044
46 | CCS(=O)(=O)N1C[C@@]2(C1)CN([C@H](CO)c1[nH]c3cc(OC)ccc3c21)S(=O)(=O)c1cn(C)cn1 | 0.897 ± 0.034
47 | COc1ccc(S(=O)(=O)N2C[C@H](O)COC[C@@H]3O[C@H](CC(=O)N[C@@H]4CCN(Cc5ccccc5)C4)CC[C@H]32)cc1 | 0.962 ± 0.015
48 | CC(=O)N1[C@H](CN(CC(C)C)C(=O)c2ccccn2)[C@H](c2ccccc2)[C@@H]1CO | 1.073 ± 0.0089

Row | SMILES | viability index
49 | C[C@H]1CN([C@@H](C)CO)C(=O)c2c(c3ccccc3n2C)-c2ccccc2CO[C@@H]1CN(C)C(=O)Nc1ccccc1C(F)(F)F | 1.009 ± 0.0034
50 | Cc1ccc(-c2ccc([C@H]3[C@H]4CNC[C@@H]3N4Cc3ccc(F)cc3)cc2)cc1 | 1.05 ± 0.015
51 | Fc1ccccc1-c1ccc([C@H]2[C@@H]3CN(Cc4ccccn4)C[C@H]2N3)cc1 | 0.926 ± 0.11
52 | CN1C(=O)c2cc(NC(=O)Nc3ccccc3Cl)ccc2OC[C@@H]2O[C@@H](CC(=O)O)CC[C@@H]21 | 1.02 ± 0.038
53 | C[C@H](CO)N1C[C@H](C)[C@@H](CN(C)S(=O)(=O)c2cn(C)cn2)Oc2ncc(C3=CCCCC3)cc2C1=O | 1.04 ± 0.066
54 | CO[C@@H]1CC[C@@H]2CCN(C)C(=O)[C@H](C)N(C)C(=O)c3cccc(C#N)c3OC[C@@H]1O2 | 1.04 ± 0.069
55 | C[C@H]1CN([C@@H](C)CO)S(=O)(=O)c2ccc(C#CC3(O)CCCC3)cc2O[C@H]1CN(C)C(=O)Nc1cccc(F)c1 | 1.03 ± 0.064
56 | CCC(=O)Nc1ccc2c(c1)OC[C@H](C)N(Cc1ccccc1)C[C@H](C)[C@H](OC)CN(C)C2=O | 1.033 ± 0.0097
57 | C[C@@H]1CN([C@H](C)CO)C(=O)Cc2cc(NS(=O)(=O)c3cccs3)ccc2O[C@@H]1CN(C)CC1CCCCC1 | 1.05 ± 0.12
58 | COc1ccc2c3c([C@H](CO)N(C[C@]33CN(Cc4nccs4)C3)C(=O)Nc3cccc(F)c3)n(C)c2c1 | 1.03 ± 0.019
59 | COc1ccc2c3c([nH]c2c1)[C@@H](CO)N(C[C@]31CCN(CC1)C(=O)Nc1ccccc1)S(C)(=O)=O | 0.99 ± 0.15
60 | O=C(C[C@@H]1CC[C@@H]2[C@H](COC[C@@H](O)CN2C(=O)Nc2cccc(F)c2)O1)NCCCN1CCOCC1 | 1.12 ± 0.081
61 | O=C(C1CCC1)N1CCCCN2[C@H](CO)[C@@H](c3ccc(-c4ccncc4)cc3)[C@H]2C1 | 1.06 ± 0.022
62 | COCC(=O)N1C[C@@]2(C1)CN(Cc1nccs1)[C@@H](CO)c1c2c2ccc(OC)cc2n1C | 1.02 ± 0.022
63 | CN1C(=O)c2cc(NC(=O)Nc3cccc(C#N)c3)ccc2OC[C@H]2O[C@@H](CC(=O)NCc3ccc(Cl)cc3)CC[C@@H]21 | 1.01 ± 0.046
64 | COCC(=O)N1[C@@H](C#N)[C@H](c2ccc(C#CCC3CCCC3)cc2)[C@@H]1CO | 0.995 ± 0.023
65 | CC(C)CC#Cc1ccc([C@H]2[C@H](CO)N3C(=O)CN(C(=O)Nc4cc(F)ccc4F)C[C@@H]23)cc1 | 1.02 ± 0.059
66 | CCN(C[C@H]1N[C@@H](CO)[C@@H]1c1ccccc1)C(=O)c1ccncc1 | 0.993 ± 0.049
67 | O=C(C[C@H]1C=C[C@@H](NS(=O)(=O)c2ccccc2)[C@H](CO)O1)NCCN1CCCCC1 | 1.17 ± 0.14
68 | O=C(c1ccccn1)N1CC[C@H]2[C@H](CO)Nc3ccc(C#Cc4cccnc4)cc3[C@H]21 | 1.1 ± 0.013
69 | COc1ccc2c3c([C@H](CO)N(C[C@]33CN(C3)C(=O)c3ccccc3F)C(=O)Nc3ccccc3F)n(C)c2c1 | 1.03 ± 0.032
70 | COCC(=O)N1CC(=O)N2[C@H](CO)[C@@H](c3ccc(-c4ccccc4F)cc3)[C@H]2C1 | 0.948 ± 0.054
71 | CN(C)C(=O)c1cccc(-c2ccc3c(c2)[C@H]2[C@H](CCN2C(=O)Cc2ccccc2)[C@H](CO)N3)c1 | 1.03 ± 0.03
